Reference: PubChem BioAssay AID624173 (National Center for Advancing Translational Sciences (NCATS), 2012)
“And” between values parts separate entries of the source, which are not always exact repeats. Identical values can stand only once. Hit rate of the full screen: of about 410,000 compounds, about 490 (0.12%) were called active. Inconclusive results, whose numbers are uncertain, are shown with a selection of clear calls. Calls follow the shape of the dose curve; as a rule, active = well fitted inhibition curve with a large enough effect; inconclusive = small, poorly fitted or top-dose-only effect; inactive = flat fitted curve, though single readings scatter. Potencies of inconclusive entries are doubtful fits and often do not repeat.

These compounds were tested against pyruvate kinase (Trypanosoma brucei) (UniProt Q57TT1) (assay: qHTS of Trypanosoma Brucei Inhibitors). Conditions: TbPYK enzyme, Kinase-Glo Plus ATP luminescence, 45 min; series mostly up to 76.8 µM.
Summary of the method: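 Readout: single end-point luminescence (Kinase-Glo Plus, 10 min). Reaction conditions were TbPYK/substrate plus 130 uM ADP, 45 min at RT, pH 7.2 TEA buffer. No-enzyme wells served as controls, and data were normalized before concentration-response fitting.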
Also: nearly all actives have a fitted effect of over 50% in size.
Potency is read from the fitted curve at half-maximal effect; tags tell the direction and shape of the fitted curve.

Row | SMILES | Potency
1 | CCOc1ccc(CCNC(=O)c2c(C)oc3ncn(CC(C)C)c(=O)c23)cc1 | inactive
2 | CCN(c1ccc(NC(=O)COC(=O)c2cccs2)cc1)C(C)C | inconclusive: 22.4 µM [inhibitor, partial curve, poor fit]
3 | Cn1c(=O)c(C(=O)NNC(=O)c2ccccc2F)c(O)c2ccccc21 | inactive
4 | Cc1occc1C(=O)N/N=C/c1ccc(-c2ccccc2)cc1 | inconclusive: 28.2 µM [inhibitor, partial curve]
5 | COc1ccc(NC(=O)N2CC3(CCNCC3)C2)cc1 | inactive
6 | Cc1cc(NS(=O)(=O)c2ccc(NC(=O)/C=C/c3ccc(C)o3)cc2)nc(C)n1 | inconclusive: 15.8 µM [inhibitor, partial curve, poor fit]
7 | Cc1cc(C(=O)N2CCOCC2)c(C)o1 | inactive
8 | COc1cccc(/C=N/Nc2snc(SC)c2C#N)c1 | inconclusive: 31.6 µM [inhibitor, single point]
9 | NC(=O)C1CCN(C(=O)c2ccc3c(=O)n(Cc4cccc(Br)c4)c(=S)[nH]c3c2)CC1 | inconclusive: 35.5 µM [inhibitor, single point]
10 | CCN(CC)c1ccc(NS(=O)(=O)c2cc(-c3onc(C)c3C)ccc2OC)c(C)c1 | inconclusive: 12.6 µM [inhibitor, partial curve]
11 | CC(C)N(Cc1nccn1C)C(=O)c1cc(COc2ccc(-n3cncn3)cc2)on1 | inactive
12 | CCN(CC)CCN(C(=O)C1=COCCO1)c1nc2ccc(C)cc2s1 | inactive
13 | CC(C)CCn1c(SCc2ccc(Cl)cc2)nc2c1c(=O)[nH]c(=O)n2C | inconclusive: 44.7 µM [inhibitor, partial curve, poor fit]
14 | COC(=O)C1=C(C)NC(C)=C(C(=O)OCC(C)C)C1c1ccccc1[N+](=O)[O-] (configuration not stated) | inconclusive: 28.2 µM [inhibitor, single point] and inconclusive: 39.8 µM [inhibitor, single point]
15 | Cc1ccc(NC(=O)COC(=O)COc2cccc3c2OC(C)(C)C3)c(C)c1 | inactive
16 | Cn1c(=O)c2c(n3c4ccccc4nc13)NC(=O)CC2c1cccc(F)c1 (configuration not stated) | inactive
17 | C[C@H]1CN([C@@H](C)CO)C(=O)c2cc(C#CCC3CCCC3)cnc2O[C@@H]1CN(C)C(=O)CC1CC1 | inconclusive: 31.6 µM [inhibitor, single point]
18 | CC(/C=N/n1c(-c2ccncc2)n[nH]c1=S)=C\c1ccco1 | inconclusive: 2.51 µM [inhibitor, full curve]
19 | O=C(CSc1nc2ccc(Cl)cc2[nH]1)NC1CCCc2ccccc21 (configuration not stated) | inactive
20 | COC(=O)c1ccc(N2NC(=O)/C(=C/c3cc(OC)c(OC)c(OC)c3)C2=O)cc1 | inconclusive: 39.8 µM [inhibitor, single point]
21 | O=C(NCCCN1CCOCC1)c1ccc(CNS(=O)(=O)c2ccc(Br)cc2)cc1 | inactive
22 | COc1ccc(CCC(=O)Nc2cc(Cl)ccc2N2CCN(C)CC2)cc1 | inactive
23 | O=C1CCCCN1CC(=O)N1CCCC(Nc2ccc(F)c(F)c2)C1 (configuration not stated) | inconclusive: 31.6 µM [inhibitor, single point]

Row | SMILES | Potency
24 | CCCCC(CC(O)COCCC)c1n[nH]c(=S)n1-c1ccccc1 (configuration not stated) | active: 11.2 µM
25 | COC(=O)c1ccccc1NC(=O)C(C)Oc1ccccc1 (configuration not stated) | inconclusive: 20 µM [inhibitor, partial curve, poor fit]
26 | CC1CCN(c2ccc(NC(=S)NC(=O)c3ccc(-c4cccc([N+](=O)[O-])c4)o3)cc2)CC1 | inconclusive: 28.2 µM [inhibitor, partial curve, poor fit]
27 | O=C(CCC1CCCN(C(=O)c2ccc3cc[nH]c3c2)C1)N1CCN(c2ccccn2)CC1 (configuration not stated) | inconclusive: 50.1 µM [inhibitor, single point]
28 | CCOc1ccc(C(=O)Nc2nnc(S(=O)(=O)Nc3ccccc3)s2)cc1 | inconclusive: 28.2 µM [inhibitor, partial curve, poor fit]
29 | COc1ccc(C(=O)NC(=S)N2CCOCC2)cc1[N+](=O)[O-] | inconclusive: 44.7 µM [inhibitor, single point]
30 | Cn1c(CSc2nc3ccccc3s2)n[nH]c1=S | inconclusive: 28.2 µM [inhibitor, partial curve, poor fit]
31 | CC(=O)Nc1ccc(S(=O)(=O)N2CCC(c3nnc(-c4ccc(C)cc4)o3)CC2)cc1 | inconclusive: 15.8 µM [inhibitor, partial curve] and inconclusive: 15.8 µM [inhibitor, partial curve, poor fit]
32 | N/C(=N\N=C\c1cccc(O)c1)c1nonc1N | inconclusive: 44.7 µM [inhibitor, single point]
33 | CCOC(=O)C1=C(C)Nc2ccccc2N=C1NC(=O)c1cc(C)on1 | inactive
34 | COc1ccc(NC(=O)c2c(NCc3ccc(N(C)C)cc3)sc3c2CCC3)cc1 | inconclusive: 31.6 µM [inhibitor, single point]
35 | O=C(O)c1cc(-c2cccs2)nn1-c1cccc(Cl)c1 | inactive
36 | CC(C)c1cccc(-c2csc(C(O)c3ccc(F)c(F)c3)n2)c1 (configuration not stated) | inactive
37 | COCCn1cnnc1SCC(=O)c1ccc(S(=O)(=O)N2CCCC2)cc1 | inconclusive: 50.1 µM [inhibitor, single point]
38 | C[C@H](CO)N1C[C@H](C)[C@@H](CN(C)S(=O)(=O)c2ccccc2)Oc2c(NS(=O)(=O)c3ccccc3)cccc2C1=O | inactive
39 | Cc1nn(C)cc1-c1n[nH]c(=S)n1-c1ccc(F)cc1 | inconclusive: 17.8 µM [inhibitor, partial curve, poor fit]
40 | COC(=O)c1c(NC(=O)Cn2cnc([N+](=O)[O-])n2)sc2c1CCC(C)C2 (configuration not stated) | inconclusive: 35.5 µM [inhibitor, partial curve, poor fit]
41 | Cc1cccc2sc(NNC(=O)c3cc(=O)c4ccccc4o3)nc12 | inconclusive: 50.1 µM [inhibitor, single point]
42 | O=C1NC(=O)N(Cc2ccccc2)C(=O)/C1=C\c1ccco1 | inconclusive: 35.5 µM [inhibitor, partial curve, poor fit]
43 | COc1ccc(Nc2nnc(SCC(=O)c3cc4ccccc4o3)s2)cc1 | inconclusive: 12.6 µM [inhibitor, partial curve, poor fit]
44 | O=C(Nc1ccccc1C(=O)NCCCN1CCOCC1)c1ccc(F)cc1F | inactive
45 | CC(C)COP(=O)(OCC(C)C)C(Nc1ccccc1)c1ccc2c(c1)OCO2 (configuration not stated) | inconclusive: 35.5 µM [inhibitor, single point]
46 | Cc1ccsc1/C=N/NC(=O)c1ccc2c(c1)OCCO2 | inactive

Row | SMILES | Potency
47 | COc1cc(/C=N/n2c(-c3ccccc3)n[nH]c2=S)ccc1O | active: 6.31 µM
48 | CCCN(CC1CC1)C(=S)NC(=O)c1ccc(S(=O)(=O)N2CCOCC2)cc1 | inconclusive: 17.8 µM [inhibitor, partial curve, poor fit]
49 | Cc1cc(C)c2c(-n3cccc3)c(C(=O)NNS(=O)(=O)c3ccc(Br)cc3)sc2n1 | inactive
50 | O=c1c2cn[nH]c2[nH]c(=S)n1-c1ccccc1 | inconclusive: 15.8 µM [inhibitor, partial curve, poor fit]
51 | CCOC(=O)C1CCN(S(=O)(=O)c2ccc(CC)cc2)CC1 | inconclusive: 50.1 µM [inhibitor, single point]
52 | CCOC(=O)C(=O)N(C)c1c(CC)nc2c(OCc3ccccc3)cccn12 | inactive
53 | O=[N+]([O-])c1cc2c(cc1/C=N/n1c(-c3ccccn3)n[nH]c1=S)OCO2 | inconclusive: 11.2 µM [inhibitor, partial curve, poor fit]
54 | CNC(=O)CSc1nnc(NC(=O)C2CC(=O)N(c3ccccc3OC)C2)s1 (configuration not stated) | inconclusive: 31.6 µM [inhibitor, single point]
55 | c1c2c(cc3sc(N4CCOCC4)nc13)OCCO2 | inconclusive: 25.1 µM [inhibitor, partial curve]
56 | COc1cc([N+](=O)[O-])ccc1-c1ccc(C(=O)Nc2ccc(NC(C)=O)cc2)o1 | inconclusive: 31.6 µM [inhibitor, partial curve, poor fit]
57 | NNc1nc2ccccc2c(=O)n1Cc1ccccc1 | inconclusive: 28.2 µM [inhibitor, single point]
58 | O=C(Cn1cc(SCc2ccc(F)cc2)c2ccccc21)N1CCCC1 | inactive
59 | Cc1ccc(/C=C/C(=O)N2CC(C)CC(C)C2)o1 (configuration not stated) | inconclusive: 25.1 µM [inhibitor, partial curve, poor fit]
60 | CCOc1ccc2[nH]c3c(NCCCOC)ncnc3c2c1 | inactive
61 | O=C(/C=C/c1cccs1)Nc1scc(-c2ccccc2)c1C(=O)O | inconclusive: 50.1 µM [inhibitor, single point]
62 | OCCN1CCN(C(=S)c2ccc(-c3ccccc3)cc2)CC1 | inconclusive: 10 µM [inhibitor, partial curve]
63 | Oc1ccc(N2CCN(Cc3ccc(OCCCN4CCCCC4)cc3)CC2)cc1 | inconclusive: 35.5 µM [inhibitor, partial curve, poor fit]
64 | COc1cccc(C(c2nnnn2Cc2ccco2)N2CCN(c3cccc(C)c3C)CC2)c1OC (configuration not stated) | inconclusive: 44.7 µM [inhibitor, single point]
65 | c1cc2c(cc1CN1CCOCC1)OCO2 | inconclusive: 50.1 µM [inhibitor, partial curve, poor fit]
66 | COc1ccc(NS(=O)(=O)c2cccc(C(=O)N3CCOCC3)c2)cc1 | inactive
67 | O=C(NCc1n[nH]c(=S)n1-c1ccc([N+](=O)[O-])cc1)c1ccc(S(=O)(=O)N2CCOCC2)cc1 | inconclusive: 44.7 µM [inhibitor, single point]
